In the supplement of paper PMC10441789:
Some of the results follow. Antibody binding of pooled human sera (four to six donors per pool; dilution not stated) to peptides of the Trypanosoma cruzi antigen TSSA on microarrays. Quantile-normalised fluorescence in arbitrary units, mean of duplicate arrays; higher = more binding. No active / inactive call. The uninfected pools are read here as the healthy donors of the same country. The strongest signals lie near the top of the scale (about 60,000).

Columns and labels:
Test in all cases: antibody binding signal (normalised fluorescence) (arbitrary fluorescence units); higher = stronger serum antibody binding to peptide
[1] = tested on: pooled sera of chronic Chagas disease patients, Argentina
Method: (§1)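 Microarray of 15-residue peptides over residues 30-55 of Trypanosoma cruzi TSSAII, each with 1 to 10 substitutions at naturally variable positions, probed with one serum pool per country.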

[2] = tested on: pooled sera of chronic Chagas disease patients, Bolivia
Method: as §1

[3] = tested on: pooled sera of chronic Chagas disease patients, Brazil
Method: as §1

[4] = tested on: pooled sera of chronic Chagas disease patients, Colombia
Method: as §1

[5] = tested on: pooled sera of chronic Chagas disease patients, Mexico
Method: as §1

[6] = tested on: pooled sera of chronic Chagas disease patients, USA
Method: as §1

[7] = tested on: pooled sera of uninfected people, Argentina
Method: as §1

[8] = tested on: pooled sera of uninfected people, Bolivia
Method: as §1

[9] = tested on: pooled sera of uninfected people, Brazil
Method: as §1

[10] = tested on: pooled sera of uninfected people, Colombia
Method: as §1

[11] = tested on: pooled sera of uninfected people, Mexico
Method: as §1

[12] = tested on: pooled sera of uninfected people, USA
Method: as §1

Sequence	antibody binding signal [1]	antibody binding signal [2]	antibody binding signal [3]	antibody binding signal [4]	antibody binding signal [5]	antibody binding signal [6]	antibody binding signal [7]	antibody binding signal [8]	antibody binding signal [9]	antibody binding signal [10]	antibody binding signal [11]	antibody binding signal [12]
KKPAAGGAPSQPGAS	162	190	1590	1420	195	179	253	242	107	85	79.2	239
SGTEKKAATGGAPSP	3180	255	2360	1560	2560	2500	513	1640	154	1260	148	193
KENKAAAGETPSQSG	175	215	10700	184	154	2430	97.5	175	115	146	129	111
TPPSGTEKKPAAGGA	38200	20200	38100	1540	31000	8530	2020	948	1930	247	580	1320
PSGKDKKAATGGAPS	2860	725	2100	5320	4940	3280	248	395	82.8	282	85.5	101
KDNKPAAGETPSPSG	418	278	11900	360	199	3640	296	495	171	281	470	1940
KDKKPAAGETPSQPG	266	260	24400	130	148	930	95.7	105	104	172	73.7	116
DNKPAAGGTPSPPGA	181	519	494	1350	219	210	179	614	1180	547	356	126
KENKPATGEAPSQSG	47600	32200	48600	323	881	44600	1110	796	275	204	274	170
KDKKPAAGGTPSPSG	181	234	158	1480	129	393	102	85.5	545	134	82.1	107
KAAAGEAPSQPGASS	8950	31000	45100	245	209	7830	244	426	114	117	190	187
SSTPPSGTEKKTATG	32800	4600	30300	405	16800	3670	860	335	141	120	221	175
GKDNKTAAGEAPSQS	3380	5000	5410	6350	4820	7070	271	248	150	262	115	131
TPPSGTENKPAAGGT	52100	48300	53400	370	9670	30900	7580	1740	1570	690	617	889
SGKENKTAAGGTPSQ	3820	395	19600	9620	4410	21300	5100	1110	425	279	745	207
GKENKTAAGGTPSPP	1140	973	2550	4600	2160	8460	354	86.3	289	151	413	141
GTDKKTATGETPSQS	666	712	2550	1160	355	7130	278	344	321	135	205	108
KEKKTAAGGAPSPPG	164	219	191	2420	278	541	126	92.3	84.4	187	85.4	101
KDNKPATGETPSQSG	36900	21700	35800	251	307	27400	474	601	401	327	2150	229
SGKENKPAAGEAPSP	6010	4910	29500	4230	4750	17900	7260	4250	168	313	576	133
ENKAAAGEAPSQSGA	561	21500	27600	261	191	14200	87.8	167	137	68.7	93.6	121
KKTAAGETPSPPGAS	127	235	304	212	171	744	285	287	97.2	282	91.4	343
KENKTATGGTPSPSG	251	276	319	532	234	397	224	102	135	161	110	137

Sequence	antibody binding signal [1]	antibody binding signal [2]	antibody binding signal [3]	antibody binding signal [4]	antibody binding signal [5]	antibody binding signal [6]	antibody binding signal [7]	antibody binding signal [8]	antibody binding signal [9]	antibody binding signal [10]	antibody binding signal [11]	antibody binding signal [12]
GTEKKTAAGEAPSPP	732	395	1050	915	802	7650	149	631	360	1410	153	125
GKENKPATGGTPSPS	2920	668	8980	5780	5960	12600	762	441	181	189	184	172
PSGKDNKTAAGGAPS	2120	460	3300	8170	4970	4250	353	206	142	164	97.2	130
GTENKTATGEAPSQS	24700	32900	25200	2730	3800	22100	187	264	156	194	132	80.4
TPPSGKEKKPAAGET	12500	465	856	632	41600	948	783	920	125	419	102	304
PPSGTEKKTAAGGAP	27100	1450	13100	7140	2620	2890	1000	412	173	240	187	350
GTDKKAAAGETPSPS	252	381	757	1940	401	3120	174	329	171	177	534	2230
SGKEKKAAAGETPSQ	6450	900	4340	4210	7890	6780	186	169	116	264	101	127
SGKDNKTAAGEAPSQ	1290	8240	8570	4200	1260	8080	270	275	167	822	131	181
TEKKPAAGEAPSPPG	1530	228	15200	332	339	15400	121	154	237	100	181	561
GKDKKPAAGEAPSPS	740	223	3110	1180	1380	10400	135	80.8	113	91.5	73.7	81.3
TISTPPSGKEKKTAA	15200	233	350	613	21400	678	699	405	127	214	118	247
TPPSGTENKTATGET	43800	38500	42600	400	2450	17700	1840	285	205	337	230	164
DKKAATGGAPSQSGA	790	358	652	899	1110	863	494	464	133	673	143	203
KEKKAAAGGAPSQSG	155	186	178	1400	153	200	102	79.8	98	87.4	75	80.2
GKDKKTATGGAPSPS	611	188	313	1200	745	777	193	96.2	106	92.3	90.6	107
DKKAAAGEAPSQSGA	1530	6080	12200	327	321	11300	130	315	135	92.1	106	127
DNKAATGGAPSPPGA	614	430	1870	544	415	1700	364	214	252	190	280	150
DKKPATGETPSQPGA	35100	17000	40500	189	201	22000	264	919	291	291	1630	195
GTENKAATGEAPSQS	33500	41400	38900	4590	5120	29600	237	366	147	169	99.5	83.3
GKENKPATGGAPSPP	4240	1570	5260	4950	5680	11900	658	858	128	114	141	147
SSTPPSGTDKKTAAG	28600	8130	32100	5240	30300	4010	479	158	186	141	1000	221
GKDNKAATGGTPSQS	703	270	565	1400	1930	1330	177	237	171	149	127	93.4
